Test results taken from PubChem BioAssay AID493208 (National Center for Advancing Translational Sciences (NCATS), 2011).
The whole screen tested about 44,000 compounds, of which about 340 (0.77%) were called active. Roughly 5% stayed inconclusive and do not appear here. Calls come from the whole dose curve; as a rule, active = well fitted inhibition curve with a large enough effect; inconclusive = small, poorly fitted or top-dose-only effect; inactive = flat fitted curve, though single readings scatter. Some of the results follow.

assay: Acumen qHTS Assay for Inhibitors of the mTORC1 Signaling Pathway in MEF (Tsc2-/-, p53-/-) Cells: Sytravon; settings: phospho-rpS6 immunofluorescence/PI, 24 h; series mostly up to 38.3 µM; activity change, negative = inhibition: at the top concentration;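 note: plate controls were DMSO for no effect and rapamycin for full effect; nearly all actives have a fitted effect of over 50% in size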
Outline: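 Cell-based qHTS: Tsc2-/- p53-/- MEF, 24 h cpd, 37 °C; fix/perm, anti-phospho-S6 Alexa-488 + PI; Acumen 488 nm scan; pS6/PI ratio, % positive cells; rapamycin 7.5 nM = inhibition ref; PI count = viability.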

Activity change, negative = inhibition, inactive:
COc1ccc(NC(=O)c2oc3ccccc3c2NC(=O)Cc2cccs2)c(OC)c1 -18.1%
COc1ccc(CNC(=O)C(C)n2c(=O)cc(C)c3c(C)nn(-c4ccccc4)c32)cc1 (stereo not given) -2.92%
CCc1cccc(NC(=O)C2CCN(S(=O)(=O)c3cccc(-c4noc(C)n4)c3)CC2)c1 -14.5%
Cc1nc2c(c(C)nn2-c2ccccc2)c(C)c1CCC(=O)NCc1ccccc1 3.74%
CCN1CCN(Cc2c(O)ccc3cc(-c4ccc(OC)cc4)c(=O)oc23)CC1 0%
COc1ccc(C2c3cccn3CCN2S(=O)(=O)c2ccc([N+](=O)[O-])cc2)cc1 (stereo not given) 0.234%
CC(=O)c1cccc(NC(=O)c2nc(-c3ccccc3)n(-c3ccccc3C)n2)c1 1.93%
Cc1ccn2cc(-c3ccc(C)c(NS(=O)(=O)c4ccc(Cl)cc4)c3)nc2c1 -14.1%
Cc1nnc(N2CCCC(C(=O)NCCc3ccccc3)C2)c2nn(-c3ccccc3)c(C)c12 (stereo not given) -8.36%
Cc1ccc(S(=O)(=O)c2nc(-c3cccc(Cl)c3)oc2NCc2ccccc2)cc1 0.892%
COC(=O)c1cc2oc3ccccc3c2n1CC(=O)Nc1ccc(C)cc1C -1.61%
CCOC(=O)Cn1c(=O)oc2cc(S(=O)(=O)N3CCN(c4cc(C)ccc4C)CC3)ccc21 0.299%
COCCCNC(=O)c1ccc2nc(CCc3ccccc3)oc2c1 -10.3%
CCOC(=O)c1c(NC(=O)c2ccc(C)c(C)c2)sc2c1CCCCC2 -2.78%
CCc1ccc(C(=O)NC2=NC(c3ccccc3F)CC(=O)N2)cc1 (stereo not given) 0.116%
Cn1cnc(S(=O)(=O)N2CCCC(C(=O)Nc3ccc(OC(F)(F)F)cc3)C2)c1 (stereo not given) 0%
CCC(=O)N1CCc2cc(S(=O)(=O)NC(C(=O)Nc3cc(OC)cc(OC)c3)C(C)C)ccc21 (stereo not given) -5.15%
Cc1c(Cl)ccc2sc(N3CCN(C(=O)CS(=O)(=O)c4ccccc4)CC3)nc12 -7.82%
CCOc1ccc(OCC)c(NS(=O)(=O)c2ccc3c(c2)CCN3C(=O)C2CCC2)c1 0.109%
O=C(Cc1c(C(=O)O)[nH]c2ccccc12)Nc1cccc(C(F)(F)F)c1 -7.08%
CCCN1CCN(CCCNC(=O)c2c(C)nn(-c3ccc(F)cc3)c2-n2cccc2)CC1 -14.9%
CCOc1ccc(CNC(=O)Cn2c(=O)c3cccn3c3ccccc32)cc1 0.892%
Cc1ccc(OCC(=O)Nc2ccc(-c3nc4ccccc4o3)cc2)c(C)c1 -2.67%
O=C(Nc1ccccc1Br)N1CCC(CN2CCCC2)CC1 -1.28%
CCn1cc2nc(SCc3cccc(C(F)(F)F)c3)n(Cc3ccc(C)cc3)c(=O)c2n1 -2.13%
Cc1cc(F)ccc1NC(=O)c1c(C)oc2c1C1=NCCN1C=N2 -4.67%
COc1ccc(-c2cc(C(=O)Nc3cnn(Cc4ccc(F)cc4)c3)no2)cc1OC -18.9%
CCc1ccccc1NC(=O)CSc1nc2c(c(=O)[nH]1)CN(Cc1ccccc1OC)CC2 3.18%
COc1ccccc1-n1c(=O)n(C)c2c(C(N)=O)nc(-c3cc(OC)c(OC)c(OC)c3)nc21 -4.43%
Cc1cc(C)c2c(N)c(C(=O)Nc3ccccc3C(F)(F)F)sc2n1 5.25%
COc1cc2c(cc1NC(=O)C(C)Oc1ccccc1)oc1ccccc12 (stereo not given) -17.9%
COc1ccc(OC)c(NC(=O)COCc2cc(-c3ccc(F)cc3)on2)c1 4.52%
CCC1CN(C(=O)Nc2cc(Cl)ccc2C(=O)OC)c2ccccc2S1 (stereo not given) -6.27%
Cc1ccc(N2C(=O)N(Cc3cccc(Cl)c3)c3ccccc3S2(=O)=O)cc1 -2.06%
Cc1ccc(C)c(Cn2c(=O)n(CCCC(=O)NCc3ccc4c(c3)OCO4)c(=O)c3sccc32)c1 -16.4%
CCCSc1ncc(Cl)c(C(=O)N2CCN(c3ccc(OC)cc3)CC2)n1 6.92%
CN(C(=O)c1nn(C)c2c1CS(=O)(=O)c1ccccc1-2)c1cccc(Cl)c1 3.36%
CCOC(=O)c1ccc(NC(=O)c2c(NCc3cccc(OC)c3OC)sc3c2CCC3)cc1 -7.59%
CCC(C)c1ccc(OCC(=O)Nc2ccc(-c3nc4ncccc4o3)cc2)cc1 (stereo not given) 5.04%
CC(C)Oc1ccc(C(=O)N2CCCCC2CCN2CCCCC2)cc1 (stereo not given) -5.76%
CCCOc1ccc(CNC(=O)c2cc3ccccn3n2)cc1 -5.4%
CCOC(=O)c1sc(N2C(=O)c3oc4ccc(F)cc4c(=O)c3C2c2ccc(O)cc2)nc1C (stereo not given) -3.14%
Cc1ccc(/C=C/c2onc(C)c2S(=O)(=O)N2CCC(C(=O)N(CCC(C)C)Cc3ccco3)CC2)cc1 1.07%
COc1ccc(N2CCN(CCCNC(=O)c3ccc4nc(N5CCCCC5)sc4c3)CC2)cc1 0.321%
CCc1cccc(NC(=O)CCNS(=O)(=O)c2ccc3c(c2)CCN3C(C)=O)c1 0.279%
COc1ccccc1NC(=O)Cn1c(=O)n(-c2ccc(C)cc2)c(=O)c2c1cnn2C 3.79%
CCOc1ccc(NC(=O)c2oc3ccccc3c2NC(=O)c2cc3ccccc3o2)cc1 -0.452%
Cc1ccc(N2C(=O)CSC23C(=O)N(CC(=O)Nc2ccccc2F)c2ccccc23)cc1C (stereo not given) -1.19%
Cc1ccc(CNC(=O)c2ccc(CS(=O)(=O)c3ccccc3C)o2)cc1 -1.03%
CCOC(=O)CSc1nc2cc3c(cc2c(=O)n1CCCCCC(=O)NCc1ccc(OC)cc1)OCO3 -0.859%
CN(C)c1ccc(CNC(=O)c2ccc3nc(CCc4ccccc4)oc3c2)cc1 -7.08%
COc1ccc(-n2nc(C(=O)Nc3cccc(Cl)c3)c3c4ccccc4n(C)c3c2=O)cc1Cl -0.999%
O=C(Nc1ccc(Br)cc1)c1cccc(S(=O)(=O)N2CCc3ccccc32)c1 9.23%
CC(C)(C)c1ccc(-c2nnc(-c3ccccc3NC(=O)c3ccc(F)cc3F)o2)cc1 -0.623%
CCCCCCC1CCC(C(=O)NC(C(=O)O)C(C)C)CC1 (stereo not given) -2.08%
O=C(CSc1oc(-c2ccco2)nc1S(=O)(=O)c1ccc(Cl)cc1)Nc1ccc(F)cc1 6.26%
CC(C)c1ccc(NC(=O)CSC2=Nc3ccccc3C3=NC(CC(=O)NC4CCCCC4)C(=O)N23)cc1 (stereo not given) -1.56%
COc1ccc2c(Sc3ccc(Cl)cc3)c(C(=O)N3CCCCC3)[nH]c2c1 -10.1%
COc1ccc(-c2nc3ccccc3n3c(-c4ccccc4)c4c(=O)n(C)c(=O)n(C)c4c23)cc1 -8.62%
Cc1ccc(CNC(=O)CSc2c(C(C)C)cnc3c2c(=O)n(C)c(=O)n3C)cc1 -0.603%
